In the supplement of paper PMC3334620:
In all, about 33,000 sequences were measured (“E-score (-0.5 to 0.5)”: median about -0.054, highest 2% from about 0.35 on). This is one part of the list.

These sequences were tested against T1, Stb5 (UniProt P38699) (assay: PBM E-score (8-mer binding enrichment) (E-score (-0.5 to 0.5)); higher = stronger / more preferred TF binding; most listed sequences are background and not binding sites). Settings: protein concentration: 200 nM; construct: GST-full length.
T1 sequence: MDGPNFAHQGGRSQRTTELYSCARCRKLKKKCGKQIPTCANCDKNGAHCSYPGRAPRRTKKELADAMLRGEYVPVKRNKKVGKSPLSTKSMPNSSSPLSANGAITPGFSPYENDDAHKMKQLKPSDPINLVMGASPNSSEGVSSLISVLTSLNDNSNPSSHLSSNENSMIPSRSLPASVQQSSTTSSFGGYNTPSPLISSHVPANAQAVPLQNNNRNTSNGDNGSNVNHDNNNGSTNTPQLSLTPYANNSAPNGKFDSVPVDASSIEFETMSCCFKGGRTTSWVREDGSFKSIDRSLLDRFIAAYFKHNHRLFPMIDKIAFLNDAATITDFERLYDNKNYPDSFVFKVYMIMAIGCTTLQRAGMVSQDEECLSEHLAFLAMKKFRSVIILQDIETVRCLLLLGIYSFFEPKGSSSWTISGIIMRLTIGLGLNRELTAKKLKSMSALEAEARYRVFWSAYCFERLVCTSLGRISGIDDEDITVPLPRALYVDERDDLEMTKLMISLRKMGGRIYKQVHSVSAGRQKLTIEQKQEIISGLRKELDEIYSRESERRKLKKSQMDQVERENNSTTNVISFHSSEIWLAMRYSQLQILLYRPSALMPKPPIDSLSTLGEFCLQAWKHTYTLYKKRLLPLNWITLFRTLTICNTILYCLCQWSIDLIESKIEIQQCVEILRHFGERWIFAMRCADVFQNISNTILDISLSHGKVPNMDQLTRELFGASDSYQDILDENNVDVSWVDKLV
Outline: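 Yeast transcription factors carrying a GST tag, as full-length proteins or DNA-binding domains, were produced by PURExpress in vitro transcription/translation. About 100-200 nM protein was applied to universal all-10-mer Agilent arrays, double-stranded by primer extension on fresh or once-stripped slides. Bound protein was detected with fluorescent anti-GST, and scans were normalised with masliner. The Universal PBM Analysis Suite gave each ungapped eight-base word, pooled with its reverse complement, an E-score, a modified Wilcoxon-Mann-Whitney statistic.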

Sequence	PBM E-score
CTTTACCC	0.0663
CTGCGTGC	-0.00084
CCCTGCTC	-0.237
GGAGACCA	-0.0627
CTCTAGGC	-0.18
CCGGACGG	0.26
GGAAGGGA	-0.006
ACGGCCGC	0.267
AGAAGGGA	-0.109
GGAGGTTA	0.206
AAACAACT	-0.0584
AAAGAGGA	-0.209
GTATATCA	0.0874
GCCGAGCA	-0.021
AAATTAGC	-0.0283
CGGTCAGC	-0.0527
CACCTCCC	-0.0939
TTCTGAAA	-0.123
ATACTGTA	-0.0517
CATTTGCC	-0.00201
ACAACCGG	0.227
GACGTCTA	-0.0803
CGAGTACC	0.106
AGGCGCAC	-0.212
AATGATAC	-0.11

Sequence	PBM E-score
CACTTCAA	-0.0887
ACCATAGG	-0.107
CGAAGTCG	0.0352
AATAAAAA	0.0858
GAGTTAGA	0.167
GATGGTAA	-0.153
AGTTGGCG	-0.00568
GATTATCA	-0.0447
CGACGTCG	0.0543
GACAGAGA	-0.106
CTAATTAC	-0.0792
AGCAATAT	-0.121
AGAGTCAA	-0.162
GGTAATAA	0.345
ACATGCTA	-0.218
CGAAGCCG	0.0327
AGGTAGCA	-0.179
CATGGGAA	-0.0915
CTTGTGGA	-0.27
ATGTACGG	0.0942
CGCGTTTA	0.173
AAGGAGAC	-0.119
GGCGGACA	0.357
AATTGCCG	0.354
ACTCCCCG	0.211

Sequence	PBM E-score
GCCAGTTA	-0.177
CGACCCTA	-0.00369
CTTAAATA	-0.108
AGTCGTAT	-0.144
GGTGACCA	-0.196
GGCTTGGA	-0.381
CCGATGCG	0.339
CGGTACGA	0.336
ACCCATTA	-0.191
AAGGGGCT	-0.145
CAAGTGTG	-0.224
CCCACGCG	-0.0306
CGAACACG	-0.0434
GTGCTTGA	-0.223
GCGTATCC	-0.0868
CACTTTCC	-0.078
ACCCGAAG	-0.0312
GCGTTAGC	0.125
ACCGTAGT	0.14
TGTGTAAA	-0.112
AAACCCAA	-0.252
ATGAATTC	0.0646
CAATCACA	-0.104
AACAATCA	-0.212
ATCATAGG	0.0131

Sequence	PBM E-score
ACGATAGG	0.00485
AGAGTAAC	-0.165
GACGTTAA	0.0475
TCAACTAA	-0.125
AACTTAGG	-0.163
GTCTGGCA	0.00084
GGGTGCGA	-0.0506
TGTTCAAA	-0.112
AGGTGTCA	0.12
CCGAAAAA	0.105
GTTCAGGA	-0.0733
AAAAATCA	-0.158
CCATACAA	-0.267
CAAATTAC	0.0913
GAGACGAC	-0.0645
CTTAGGAA	0.0538
GTTGTGAA	-0.301
ACGGGAAT	0.371
CTATTGTC	-0.167
TCCTCTCA	-0.269
GATGGAAA	-0.153
ACCAAGTA	-0.187
ACGGCAGG	-0.0969
GTATATGA	0.00913
ATTTACTA	-0.158

Sequence	PBM E-score
GGGTTCAA	0.109
ATTTTTCG	-0.202
CCGGATAA	0.344
GTTGGAGA	0.0784
CTCTCCCA	-0.243
AACGCTCG	-0.0301
CCAAACTC	-0.0172
ACCCGCGC	0.202
CGACCTAC	-0.178
GATGGGGC	-0.0973
GGCCTACA	0.115
AAAATCGC	-0.032
CGGGGAAC	0.141
CCGTACAG	0.054
GTTACTAA	-0.129
CTGTTCGC	-0.0755
CTGGGGTA	-0.00994
GCCCACCC	-0.0631
ATACCGTA	0.259
CTTAGATA	-0.00866
GGGTCTAA	0.174
GTCGGGTA	0.143
AATCGCCT	-0.239
ATGGCCAT	-0.154
ATTGGCTG	-0.164

Sequence	PBM E-score
GGATTCAC	0.124
AGGCCTCC	-0.259
CGGCTCAA	0.0531
TATTGTAA	-0.00772
TCACCTCA	-0.202
AGCCCTAG	-0.177
GCTAACCA	-0.11
CGTGATGA	-0.219
ATGCTAAT	-0.26
CATTAAAA	0.121
CGCCGGGC	0.318
GGAGGCCC	0.0592
AAGTCGCT	-0.139
GAGCTTAC	0.00679
CTTCGAGC	-0.0166
AAAATCTC	-0.189
GCCAAGAC	-0.0423
CTGACCAC	-0.266
ATTCGCCA	-0.185
TACACAAA	0.136
CCACCCAG	-0.0716
AACTACAC	-0.154
CCGCCAAA	0.292
AATAGCTA	-0.151
CCTGTGAA	-0.157

Sequence	PBM E-score
GGGGTAGA	0.0235
GCTCTTAA	0.215
GTATGGAA	-0.143
GATAGTCA	0.0661
ATCTATAA	0.134
AAAGCATA	-0.0489
CATATTCC	0.0411
CAGGTACA	-0.0453
GGGCTCCA	-0.123
ATGTACAC	-0.21
CCCGGGGC	0.258
CCCTGACG	0.0575
CACGCGGA	0.231
GAACCATC	-0.135
AACTCAGT	-0.214
GCGGATAA	0.236
GACCAAAA	0.0332
CTTGATTA	0.0908
ATAGAGTG	-0.054
CTATATCA	0.0852
AAATTCGG	0.12
GGTGGACA	0.00374
